Test results taken from the antibiotic and cytotoxicity screens of Wong et al. (2023).
This is one part of the list.

Tests used:
HSkMC = human skeletal muscle cells; assay: cytotoxicity call (relative viability < 0.9); conditions: 10 µM
HepG2 = assay: cytotoxicity call (relative viability < 0.9); conditions: 10 µM
S. aureus RN4220 = assay: growth inhibition call (relative growth <= 0.2); conditions: 50 µM

C[C@H]1CN([C@@H](C)CO)C(=O)Cc2cc(NC(=O)C3CCCCC3)ccc2O[C@H]1CN(C)S(C)(=O)=O
inactive: cytotoxicity call (HSkMC) | cytotoxicity call (HepG2) | growth inhibition call (S. aureus RN4220)

NC[C@H]1CCCN(C(=O)Nc2ccc(Oc3ccccc3)cc2)C1
inactive: cytotoxicity call (HSkMC) | cytotoxicity call (HepG2) | growth inhibition call (S. aureus RN4220)

C[C@H](CO)N1C[C@H](C)[C@@H](CN(C)Cc2ccccc2)Oc2cc(C#Cc3ccccn3)ccc2S1(=O)=O
inactive: cytotoxicity call (HSkMC) | cytotoxicity call (HepG2) | growth inhibition call (S. aureus RN4220)

Cc1c(C)c2c(c(C)c1OC(=O)CCC(=O)O)CC[C@@](C)(CCC[C@H](C)CCC[C@H](C)CCCC(C)C)O2
inactive: cytotoxicity call (HSkMC) | cytotoxicity call (HepG2) | growth inhibition call (S. aureus RN4220)

C[C@@H]1CN([C@H](C)CO)C(=O)Cc2cc(NC(=O)C3CCCCC3)ccc2O[C@H]1CN(C)S(=O)(=O)c1cn(C)cn1
inactive: cytotoxicity call (HSkMC) | cytotoxicity call (HepG2) | growth inhibition call (S. aureus RN4220)

C[C@@H]1CN([C@@H](C)CO)C(=O)c2cccc(NC(=O)CCCCCC(=O)Nc3ccccc3N)c2O[C@@H]1CN(C)Cc1ccc(-c2ccccc2)cc1
inactive: cytotoxicity call (HSkMC) | cytotoxicity call (HepG2) | growth inhibition call (S. aureus RN4220)

C#Cc1ccc(C(=O)NO)cc1
inactive: cytotoxicity call (HSkMC) | cytotoxicity call (HepG2) | growth inhibition call (S. aureus RN4220)

COc1ccc(NC(=O)N(C)C[C@H]2Oc3ncc(C#CC(C)C)cc3C(=O)N([C@@H](C)CO)C[C@H]2C)cc1
inactive: cytotoxicity call (HSkMC) | cytotoxicity call (HepG2) | growth inhibition call (S. aureus RN4220)

Cn1cnc(CO)n1
inactive: cytotoxicity call (HSkMC) | cytotoxicity call (HepG2) | growth inhibition call (S. aureus RN4220)

C[C@H]1CN([C@@H](C)CO)C(=O)c2cc(NC(=O)C3CCCCC3)ccc2O[C@@H]1CN(C)Cc1ccc(Cl)c(Cl)c1
inactive: cytotoxicity call (HSkMC) | cytotoxicity call (HepG2) | growth inhibition call (S. aureus RN4220)

Cc1noc(C)c1NC(=O)Nc1cccc2c1O[C@H](CN(C)S(=O)(=O)c1ccccc1)[C@@H](C)CN([C@H](C)CO)C2=O
inactive: cytotoxicity call (HSkMC) | cytotoxicity call (HepG2) | growth inhibition call (S. aureus RN4220)

COc1ccc(NC(=O)Nc2ccc3c(c2)C(=O)N([C@@H](C)CO)C[C@H](C)[C@@H](CN(C)Cc2ccc(Cl)c(Cl)c2)OCCCC[C@H](C)O3)cc1
inactive: cytotoxicity call (HSkMC) | cytotoxicity call (HepG2) | growth inhibition call (S. aureus RN4220)

COc1ccc(S(=O)(=O)N(C)C[C@@H]2OCCCC[C@H](C)Oc3ccc(NC(=O)NC4CCCCC4)cc3C(=O)N([C@H](C)CO)C[C@@H]2C)cc1
inactive: cytotoxicity call (HSkMC) | cytotoxicity call (HepG2) | growth inhibition call (S. aureus RN4220)

C[C@H](CO)N1C[C@H](C)[C@@H](CN(C)Cc2cncnc2)Oc2cc(-c3ccccc3F)ccc2S1(=O)=O
inactive: cytotoxicity call (HSkMC) | cytotoxicity call (HepG2) | growth inhibition call (S. aureus RN4220)

C[C@H]1CN([C@@H](C)CO)C(=O)Cc2cc(NS(C)(=O)=O)ccc2O[C@H]1CN(C)S(C)(=O)=O
inactive: cytotoxicity call (HSkMC) | cytotoxicity call (HepG2) | growth inhibition call (S. aureus RN4220)

C[C@@H]1CN([C@@H](C)CO)C(=O)c2cccc(NC(=O)c3cnccn3)c2O[C@@H]1CN(C)CC1CCCCC1
inactive: cytotoxicity call (HSkMC) | cytotoxicity call (HepG2) | growth inhibition call (S. aureus RN4220)

Cc1ccc(S(=O)(=O)N(C)C[C@H]2Oc3c(NC(=O)NC(C)C)cccc3C(=O)N([C@@H](C)CO)C[C@H]2C)cc1
inactive: cytotoxicity call (HSkMC) | cytotoxicity call (HepG2) | growth inhibition call (S. aureus RN4220)

COc1ccc2c3c([nH]c2c1)[C@H](CO)N(C[C@]13CN(Cc2nccs2)C1)S(=O)(=O)c1ccc(cc1)C
inactive: cytotoxicity call (HSkMC) | cytotoxicity call (HepG2) | growth inhibition call (S. aureus RN4220)

COCCNC(=O)C[C@@H]1CC[C@H]2[C@@H](COC[C@@H](O)CN2S(=O)(=O)c2ccccc2C)O1
inactive: cytotoxicity call (HSkMC) | cytotoxicity call (HepG2) | growth inhibition call (S. aureus RN4220)

O=C(C[C@H]1CC[C@@H]2[C@H](COC[C@H](O)CN2Cc2ccccc2F)O1)N[C@H]1CCN(Cc2ccccc2)C1
inactive: cytotoxicity call (HSkMC) | cytotoxicity call (HepG2) | growth inhibition call (S. aureus RN4220)
